Read counts are not given, so values of variants with three or more changes are uncertain.
B1: LINE1-mini (parent)
chain: GGCAGAGCUCAACACAGCGUGGCAAAGUGGCUGUGGCUAGACUGCC

Variants of: B1
Assay: self-cleavage, relative activity (ratio to wild type); higher = more cleavage; in vitro, sequencing; the parent is a self-cleaving ribozyme

| Variant | self-cleavage |
| --- | --- |
| A14C A25G G44C | 0.01 |
| A6U G7U G30U C46U | 0.08 |
| G17C U28G G44A | 0.03 |
| U28C C31U U32C C45A | 0.06 |
| A11C G17C G30C | 0.02 |
| C3A G22C G40C G44A | 0.04 |
| A4G G7C A12C G33A G44C | 0.02 |
| C3A G5U G33C | 0.23 |
| A6G A11U U43G | 0 |
| G22C A25C G29A G33U U38A | 0.04 |
| C10A G19U G30A G44U | 0.06 |
| A11U A12U A14C G29U | 0.03 |
| C10A C15U G21A | 0.02 |
| G5A A16U G22A U32G U43C G44C | 0 |
| G1A C3G C10U | 0.26 |
| G2C G22U C46A | 0.06 |
| G2C A14U C15U G19C C31U G40A | 0.13 |
| A6G A14G A16C C37A C46U | 0.06 |
| G1A C10A G30U | 0.06 |
| G1C A4G C37U | 0.05 |
| C15A G17C C23U A39C | 0.01 |
| G1C C15A G19U | 0.01 |
| G2A C15U A24U G30A U38G | 0.02 |
| A6G U38G A39U | 0 |

| Variant | self-cleavage |
| --- | --- |
| C3A A4G C10U | 0.18 |
| G1U C3G C18G G19A A25U G29C | 0.11 |
| G7U U28A G30A U32C C45A | 0.09 |
| U9A A12G A26G C31A G33C | 0.03 |
| G2C G5U U34G C37U | 0.04 |
| G5C G21A G29U | 0.05 |
| A24U G30A C37U C42A | 0.14 |
| G7U A12C G29A | 0.01 |
| C3G G5A G7U C45U | 0.32 |
| A26U A39G G40U A41C | 0.11 |
| A6C U32A U34C U38G | 0.05 |
| G7U G21C G22A A25G C45U | 0.1 |
| A6C U9A C18G G40A | 0.05 |
| G1C C3A C18U C23A U38G | 0.02 |
| A6U G19A U38C | 0.49 |
| A6C C31U C37A | 0.05 |
| G7U C13G G19A G27C C45U | 0.12 |
| G1C A6U A25C | 0.08 |
| G17C G27A U38C | 0.07 |
| C13U A16G G22A C46A | 0 |
| G21A G27C G36U | 0.01 |
| C3U C8U C23U C46G | 0.62 |
| A6U C10G U20C C31A | 0.02 |
| C8U C13U C23U G40A | 0.01 |

| Variant | self-cleavage |
| --- | --- |
| U32C G35U C37U A39U U43C | 0.07 |
| G1A C13U G30U | 0.06 |
| A12G G29C G36A G40C | 0.01 |
| A6C A16C C23U | 0.04 |
| C10A G19C A26U U32C | 0.03 |
| A4G G17U G29U C42A | 0.14 |
| C31A G36A A41G | 0.1 |
| C18G G19C A26U G33C C42G | 0.05 |
| C10U U38A G44U C46G | 0.02 |
| G7C C31G C37U | 0.02 |
| G7U C13U G21C G27U | 0.06 |
| C15U A16C A25C | 0.05 |
| C3A C15A G29A | 0.03 |
| C10U G29A A39G | 0.11 |
| G2C G29A G30C | 0.15 |
| A11G G27U G30C U34A | 0.03 |
| C13U G17A C18A C23U A25U G40A | 0.04 |
| C10A A11U G36C | 0.02 |
| A6C C10A G17U G19C A41U U43G | 0.18 |
| A12G G17C G21A G27C G30A | 0.02 |
| C10A G19U C45A | 0.03 |
| G2A C13G G19A A39C | 0.25 |
| C13A A16G A24G A25G | 0.05 |
| G1A U9G G17U G19A G22A A26G | 0.02 |

| Variant | self-cleavage |
| --- | --- |
| G5U G17U C23G | 0.04 |
| A16G C18G G35U | 0.14 |
| G5C C13A U20G G29U | 0.04 |
| U20G G27U G36C | 0.31 |
| C3G A16U U32G | 0.27 |
| G17A U28A G36A C45U | 0.02 |
| C3A G5A A11U U43C | 0.05 |
| C3G G22A A41U | 0.22 |
| C10U A14G G40A | 0.03 |
| C8A A14U G22U G29A G36U C37G G40U | 0.04 |
| G2C A4C A41G C46G | 0.02 |
| A16G G17U U28A | 0.75 |
| G1A G7A U28G G29C G44A | 0.11 |
| C3G C8U G19U | 0.16 |
| G7A G17A A39U C42G | 0.05 |
| C10U A24U U32G A41U | 0.02 |
| C3G G5A A6C C10U A25C G35C G36U G40C C45U | 0 |
| U20A G36C U38G | 0.02 |
| C8A G22C U43A | 0.45 |
| C3U A24G A26U | 0.45 |
| G19C C23U C46A | 1.29 |
| C3U A6G A25U C31A A41G | 0.07 |
| A11C A25U A26G | 0.06 |
| C13U A26G U38A | 0 |

| Variant | self-cleavage |
| --- | --- |
| U20A A39G U43A | 0.02 |
| A6U C8G A25C G44C | 0.05 |
| G1U A6G C46U | 0.07 |
| G1U C15U G29A | 0.31 |
| C10A A11G A25C U28G G36C | 0.01 |
| G7C G19A C45A | 0.02 |
| G1A C8U A24G A25C | 2.17 |
| U20C G22C G35U C42U | 0.04 |
| C15G C31U G33U A39C | 0.01 |
| A4U G22A G29U G40C | 0.15 |
| A6G U38A G40C | 0.16 |
| A6C U32A U38A | 0.05 |
| G2A G7C C13U U43A | 0.56 |
| G1U A14C G19A G30C | 0.03 |
| C10U C15U U20G | 0.17 |
| G2C A24U G40C | 0.3 |
| U20C U28G C45G | 0.03 |
| A6G G35U G40U | 0.09 |
| C13G U32A A41C | 0.03 |
| A4C G7U C15U G19U | 0.38 |
| C3U A26G G27A | 1.12 |
| C3U G7U A41G | 0.03 |
| C15G G17U U34A G35C | 0.07 |
| C3G G27A A39U | 0.58 |

| Variant | self-cleavage |
| --- | --- |
| G5U A6G A25G U28C A41U | 0.03 |
| A25U A26G G29C | 0.24 |
| G27C C37G G40A | 0.03 |
| C15G A24U A25C | 0.03 |
| G2U C3U C10A C23A A24C U28C | 0.02 |
| C8U A11G A12C C15A | 0.01 |
| G5U A11U G44C | 0.01 |
| G30A C31A G35U | 0.05 |
| G1U G2A G27A C37U C46G | 0.23 |
| C3A C10G G35A | 0.04 |
| G1U C8A U9C C15U | 0.01 |
| G5C U9G A24U G44A | 0.07 |
| G17C C18A C46G | 0.09 |
| G7A G21U C42U | 0.62 |
| C18U G33C G35C C37A | 0.03 |
| C10A G19U G33C U43A | 0.02 |
| C3G A4C C31A C46G | 0.07 |
| G2A G5U G7U G17A G21A U28G U34G G40A | 0.04 |
| G2C G36U A39G | 0.11 |
| G17U C37A G44U | 0.01 |
| G19C C42A C45A | 0.02 |
| C3G G7U U32C U34G | 0.06 |
| G2U C10G A11C C23A C42U | 0.01 |
| G1C A12G G29A A41C | 0 |

| Variant | self-cleavage |
| --- | --- |
| C23A A25U A26G G33A U34C | 0.12 |
| A12G G27C C42U | 0.07 |
| A6C U9C C15A G22C A25G | 0.01 |
| G2U C3G A14U C31U A39G | 0.05 |
| A12U C13U G30A C45U | 0.06 |
| A12C G22U G30U C31A | 0.01 |
| C10U G40U C42A C46G | 0.03 |
| U9C G19U A25U G44U | 0.01 |
| C8G A26C G40U G44A | 0.01 |
| C10G C18U G36A C45A | 0.01 |
| A25G G29C A39C | 0.12 |
| A4C G5C A25C A26C G40U C46U | 0.11 |
| G2A G5U A11C C13A C42U C46G | 0.02 |
| G1U C31U C46A | 0.21 |
| A4U C13A C37U U38A | 0.07 |
| C3U A4U G21C C23A G33A G36U | 0.08 |
| U9C C10A G36A A39G | 0.03 |
| A6U C13G C18A G21U U28G | 0.04 |
| C15U G21A C37A | 0.07 |
| A4C C10A A24U | 0.05 |
| G5C A11U A14C A25U C42G | 0.01 |
| A14U C18U A25G G29C C31G | 0.01 |
| C10U C23U C37G | 0.03 |

Reference: the RNAGym collection of RNA variant scans (doi:10.7554/elife.90254)
